± gives the standard deviation. The full ranking holds about 5,500 sequences; the median of “pre-steady-state target cleavage rate” is about 0.1, and the highest 2% start at about 0.64. Only a part is listed here, and it is no random draw.
Tested on: MIWI (PIWIL1) piRISC loaded with piRNA #2 (30 nt)
Assay: pre-steady-state target cleavage rate (min^-1); MIWI and MILI are mouse PIWI proteins and EfPiwi is from a freshwater sponge; tags in brackets are library labels; higher = faster piRNA-guided slicing of the target
Settings: guide: piRNA #2 5'p-UUAGGUAACCCAGUAGAUCCAGAGGAAUUC; auxiliary factor: 500 nM mouse GTSF1
Protocol: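 Cleave-'n-Seq: a library of target RNAs (target site embedded in constant flanks, ACAGCATTCCGCGTTAGTGATATCCG... 5' flank; DNA-blocked outside the site) at 0.1 nM was incubated with 1 nM active mouse MILI or MIWI piRISC (synthetic 5'-monophosphorylated piRNA guide) with or without 500 nM mouse GTSF1 at 33 °C for 1 min to 16 h. Uncleaved targets were sequenced and normalised to non-target controls, and the pooled three trials were fitted to a burst-and-steady-state model to give the pre-steady-state cleavage rate (min^-1; k3 is constrained to at most 1e-4). Sequence is the target site only; target names encode pairing extent (gX:gY) and contiguous / 1-mismatch / 2-mismatch / bulge geometry. Fits with R² ≤ 0 are excluded.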

GGAUUCCUCUGGAUCUACUGGGUUACCUAA and CUUAAGGUCUGGAUCUACUGGGUUACGAUA are within error of each other in “pre-steady-state target cleavage rate” value: 0.0367 ± 0.018 for the first, 0.0701 ± 0.017 for the second.

Going from GAUUUCCUCUGGAUCUACUGGGUUACCAAA to CUUAUCCUCAGGAUCUACUGGGAUACCUAA, the “pre-steady-state target cleavage rate” value rises from 0.264 ± 0.051 to 0.403 ± 0.056.

Going from GAAUUCCUCUGGAUAUACUGGGUUACCUAA to CUUUUCCUCUGGAUCUAGUGGGUUACCUUA, the “pre-steady-state target cleavage rate” value falls from 0.551 ± 0.038 to 0.137 ± 0.023.

CUUAAGGACUGGAUCUACUGGGUCACCUAA and CUUAUCCUCAGGAUCUACUCGGUUACCUAA are within error of each other in “pre-steady-state target cleavage rate” value: 0.0525 ± 0.028 for the first, 0.0707 ± 0.016 for the second.

CUUAACCUCUGGAUCUACUCGGUUACCUAA and CUUAUCCUCUGGAUCAACUCGGUUACCUAA are within error of each other in “pre-steady-state target cleavage rate” value: 0.0715 ± 0.014 for the first, 0.0898 ± 0.018 for the second.

Compared with CAAUUCCUCUGGAUCUAGUGGGUUACGUAA, CUUAAGGAGAGGAUCUACUCCCUUACCUAA is lower in “pre-steady-state target cleavage rate” value: 0.232 ± 0.033 for the first, < 0.0001 for the second.

CUUUAUCCUCUGGAUCUACUGGGUUACCUAA and CUUUACGUCUGGAUCUACUGGGUUACCUAA are within error of each other in “pre-steady-state target cleavage rate” value: 0.347 ± 0.064 for the first, 0.326 ± 0.029 for the second.

Compared with GUAUUGCUCUGGAUCUACUGGGUUACCUAA, CUAAUCCUCUGGAUCUACUGGCUUACCUAA is higher in “pre-steady-state target cleavage rate” value: 0.0197 ± 0.013 for the first, 0.0988 ± 0.012 for the second.

First: CAAUUCCCUGGAUCUACUGGGUUACCUAA
Second: CUUAAGGAGAGGAACUACUGGGUUACGUAA
The “pre-steady-state target cleavage rate” value of the first is higher: 0.492 ± 0.047 for the first, 0.00791 ± 0.0056 for the second.

Going from CAAUUCCUCUGGAUCUACUGGGUUACCUGA to CUUAACCUCUGGAUCUACUGGCGUUACCUAA, the “pre-steady-state target cleavage rate” value falls from 0.328 ± 0.086 to 0.0045 ± 0.0034.

Going from CUUAAGCUCUGCAUCUACUGGCUUACCUAA to GAAUUCCUCUGGAUCUACUGGGUAUACCUAA, the “pre-steady-state target cleavage rate” value rises from 0.0714 ± 0.013 to 0.322 ± 0.042.

First: CUAUUCGUCUGGAUCUACUGGGUUAGCUAA
Second: CUUAAGGUCUGGAUCUACACCGUUACCUAA
The “pre-steady-state target cleavage rate” value of the first is higher: 0.262 ± 0.06 for the first, 0.0154 ± 0.0019 for the second.

First: CUUAAGGUCUGGAUCAACUGGGUUACCUAA
Second: CUUAACCUCAGGAUCUACUGGGUUAGCUAA
The “pre-steady-state target cleavage rate” value of the first is higher: 0.243 ± 0.034 for the first, 0.0896 ± 0.024 for the second.

Going from GAUUUCCUCUGGAUCUACUGCGUUACCUAA to CUUAAGGUCUGGAGCUACUGGGUUACCUAA, the “pre-steady-state target cleavage rate” value falls from 0.363 ± 0.06 to 0.201 ± 0.042.

First: CUUAAGCUCUGGAACUUCUGGGUUACCUAA
Second: CUUAAGGACUGGAUCCUACUGGGUUACCUAA
The “pre-steady-state target cleavage rate” value of the first is higher: 0.133 ± 0.019 for the first, 0.0141 ± 0.0092 for the second.

First: CUUAAGGACAGGAUCUACUGGGUUACCUUA
Second: CAAUUCCUCUGGAUCUUCAGGGUUACCUAA
The “pre-steady-state target cleavage rate” value of the first is lower: 0.0461 ± 0.019 for the first, 0.162 ± 0.021 for the second.

Going from CUUAAGGAGUGGAUCUGCUGGGUUACCUAA to CUUAUCCUGUGGAUCUACUGGGUUACCAAA, the “pre-steady-state target cleavage rate” value rises from 0.0533 ± 0.017 to 0.166 ± 0.038.

Going from GAAAUCCUCUGGAUGUACUGGGUUACCUAA to CUUAAGGAGACCAUCUACUGGGUUACCGUAA, the “pre-steady-state target cleavage rate” value falls from 0.28 ± 0.046 to 0.00398 ± 0.0035.

Going from CAAUUCCUCUGGAUCUACAGGCUUACCUAA to GAAUUCCUCUGGAUCAACUCGGUUACCUAA, the “pre-steady-state target cleavage rate” value rises from 0.022 ± 0.0086 to 0.0852 ± 0.017.

First: GGAAUUCCUCUGGAUCUACUGGGUUACCUAA
Second: CUUUUCGUGUGGAUCUACUGGGUUACCUAA
The “pre-steady-state target cleavage rate” value of the first is lower: 0.119 ± 0.034 for the first, 0.34 ± 0.026 for the second.

Going from CUUAACCUCAGGAUCUACUCGGUUACCUAA to CUUAACCUCUGCAUCUACAGGGUUACCUAA, the “pre-steady-state target cleavage rate” value rises from 0.0602 ± 0.016 to 0.186 ± 0.017.

CUUAACCUCUGGAUCUACUGGGUUUGCUAA and GAAUUCCUCUGGAUCUACACGGUUACCUAA are within error of each other in “pre-steady-state target cleavage rate” value: 0.148 ± 0.02 for the first, 0.16 ± 0.024 for the second.

First: CUUAAGCUCUGGAUCCUACUGGGUUACCUAA
Second: CAAUUCCACUGGUUCUACUGGGUUACCUAA
The “pre-steady-state target cleavage rate” value of the first is lower: 0.0287 ± 0.0091 for the first, 0.593 ± 0.041 for the second.

First: CUUAAGGACUGGAUCUACUGGGUUACUUAA
Second: CUUAAGGUCUGGGAUCUACUGGGUUACCUAA
The “pre-steady-state target cleavage rate” value of the first is higher: 0.337 ± 0.061 for the first, 0.132 ± 0.022 for the second.

Compared with GAAUUGCUCUGGAUCUACAGGGUUACCUAA, CUUAACCUCAGGAUCUACUGGGUUACCUAA is higher in “pre-steady-state target cleavage rate” value: 0.0505 ± 0.016 for the first, 0.482 ± 0.056 for the second.

CUAUUCGUCUGGAUCUACUCGGUUACCUAA and CUUAAGGACUGGAUCUACUGGGUUACGUUA are within error of each other in “pre-steady-state target cleavage rate” value: 0.044 ± 0.023 for the first, 0.0681 ± 0.039 for the second.

First: CUUAUCCUCUGGAUGCUACUGGGUUACCUAA
Second: GAAUUGCUCUGGAUCUACUGGGUUUCCUAA
The “pre-steady-state target cleavage rate” value of the first is higher: 0.277 ± 0.034 for the first, 0.111 ± 0.029 for the second.

Going from CUUAAGGUCUGGAUGUACUGGGAUACCUAA to GAAUUCCUCUGGAUCUACUAGGGUUACCUAA, the “pre-steady-state target cleavage rate” value falls from 0.099 ± 0.027 to 0.00393 ± 0.0033.

Compared with CUAUUCCUCUGGAUCUACUGCGUUACCUAA, CUUAAGGAGACCUACUACUGGGUAUACCUAA is lower in “pre-steady-state target cleavage rate” value: 0.521 ± 0.065 for the first, 0.0037 ± 0.0027 for the second.

Going from CUUAAGCUCUGGAUCAACUGGGUAACCUAA to CUUAAGCACUGGAUCAACUGGGUUACCUAA, the “pre-steady-state target cleavage rate” value rises from 0.0351 ± 0.0088 to 0.242 ± 0.025.

Compared with CUUAAGGACUGGAUCUACUGGGUUACCUUA, CAAUUCCUCUGGAUCUACUGGGUUUCCUAA is higher in “pre-steady-state target cleavage rate” value: 0.105 ± 0.041 for the first, 0.407 ± 0.063 for the second.

Going from CUUAAGGUCUCGAUCUACUGGGUAACCUAA to CUUUUCCUCUGGAUCUACUGGGGUACCUAA, the “pre-steady-state target cleavage rate” value rises from 0.0591 ± 0.014 to 0.101 ± 0.021.

Compared with CUUUACCUCUGGAUCUACUGGGUUACGUAA, CUUUUCCUCUGGAUCUACAGCGUUACCUAA is lower in “pre-steady-state target cleavage rate” value: 0.454 ± 0.028 for the first, 0.129 ± 0.014 for the second.

Compared with CUAUUCCUCUGGAUCUACUGGGUAUCCUAA, CUAUUCCUCUCCUUCUACUGGGUUACCUAA is higher in “pre-steady-state target cleavage rate” value: 0.121 ± 0.033 for the first, 0.569 ± 0.049 for the second.

CUUAUCCUCUGGAUCUACUGGGUGUACCUAA and CUAUUCCUCUGGAUCUACUGGGAAACCUAA are within error of each other in “pre-steady-state target cleavage rate” value: 0.264 ± 0.04 for the first, 0.238 ± 0.043 for the second.

First: CUUAUCCUCUGGAUCUACUGGGUUACGUUA
Second: CUUAUCCUCUGGAUCUACUCGGUUUCCUAA
The “pre-steady-state target cleavage rate” value of the first is higher: 0.469 ± 0.07 for the first, 0.0139 ± 0.0067 for the second.

Compared with CUUAUCCUCAGGAUGUACUGGGUUACCUAA, GAAUUCCUCUGGAUGUACUGGGUUACCUUA is lower in “pre-steady-state target cleavage rate” value: 0.448 ± 0.051 for the first, 0.314 ± 0.048 for the second.

GAAUCUCCUCUGGAUCUACUGGGUUACCUAA and UAAUUCCUCUGGAUCUACUGGGUUACCUAA are within error of each other in “pre-steady-state target cleavage rate” value: 0.291 ± 0.054 for the first, 0.348 ± 0.067 for the second.

Going from CUUAAGGUCUGGAUCUACUCGGUUACGUAA to CUAUUCCUCUGGAUCUACUCGGUUAGCUAA, the “pre-steady-state target cleavage rate” value falls from 0.0622 ± 0.032 to 0.00902 ± 0.0058.

CAAUUCCUCUGGAUCUACUGGGUUACGAAA and CUUAAGCUCUGGGAUCUACUGGGUUACCUAA are within error of each other in “pre-steady-state target cleavage rate” value: 0.239 ± 0.064 for the first, 0.229 ± 0.016 for the second.

GAUUUCCACUGGAUCUACUGGGUUACCUAA and CUUAACCUCUGCAUGUACUGGGUUACCUAA are within error of each other in “pre-steady-state target cleavage rate” value: 0.348 ± 0.044 for the first, 0.417 ± 0.029 for the second.

CAAUUCCUCUGGAUGCUACUGGGUUACCUAA and CUUUUCCUCUGGAUCUACUGGGUUACCUA are within error of each other in “pre-steady-state target cleavage rate” value: 0.412 ± 0.047 for the first, 0.506 ± 0.07 for the second.

First: GAAUUCCUCUGCAUCUACUGGCUUACCUAA
Second: GAAUUCCUGUGGAUCUACUGGGUAACCUAA
The “pre-steady-state target cleavage rate” value of the first is lower: 0.104 ± 0.013 for the first, 0.155 ± 0.029 for the second.

First: CUUAAGGACUGGAUCUACUGGGUUACCCUAA
Second: CUUAAGGUCUGGUUGUACUGGGUUACCUAA
The “pre-steady-state target cleavage rate” value of the first is lower: 0.0294 ± 0.025 for the first, 0.2 ± 0.039 for the second.

Compared with CUUUUCCUCUGGAUCAACUGGGUUACCUUA, CUUAAGGUCCUGGAUCUACUGGGUUACCUAA is lower in “pre-steady-state target cleavage rate” value: 0.281 ± 0.035 for the first, 0.0822 ± 0.012 for the second.

First: CUUAAGGUCUGGAUCUACUGGGAAACCUAA
Second: CAAUUCCUCUGGAUCUACUGGGUUUACCUAA
The “pre-steady-state target cleavage rate” value of the first is lower: 0.0281 ± 0.012 for the first, 0.625 ± 0.074 for the second.

— the supplement of paper PMC10338343
